Here are results for 66 molecules from PubChem BioAssay AID1224903 (Bradner/Qi Labs at DFCI, 2016).

Each structure is given as a SMILES string. The list shows a part of the results. Further columns of the screen follow, without active or inactive calls. Compounds called inactive in the main read-out are mostly missing here.

The target in this assay is Chromobox protein homolog 7 (Homo sapiens) (UniProt O95931). The experiment in a line: blockers of CBX7 binding to H3K27me3 peptide – biochemical, AlphaScreen, primary screen (AID 1224903). The note with it: AlphaScreen His6-CBX7 / biotin-H3K27me3 peptide binding; measured here: z-score of CBX7 signal; stronger effect = lower value. In general terms: Bead proximity is the source of the signal in Alpha formats.
Chain of UniProt O95931 (O95931 whole entry, looked up): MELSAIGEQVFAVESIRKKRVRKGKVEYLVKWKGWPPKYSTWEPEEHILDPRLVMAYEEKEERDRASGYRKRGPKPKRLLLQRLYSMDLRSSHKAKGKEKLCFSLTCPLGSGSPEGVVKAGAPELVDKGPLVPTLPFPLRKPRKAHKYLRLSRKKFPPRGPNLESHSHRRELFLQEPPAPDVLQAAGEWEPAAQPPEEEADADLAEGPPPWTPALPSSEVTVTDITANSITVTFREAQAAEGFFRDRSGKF
For the molecule `Cc1ccc([N+](=O)[O-])cc1-c1[nH]c(-c2ccccc2F)nc1-c1ccccc1`, the z-score was -0.525.
As for `CC1CC(C)CN(S(=O)(=O)c2ccc(C(=O)Nc3nnc(C4CC4)o3)cc2)C1` (stereo unspecified), the figure is -2.61.
The value for `CCOC(=O)c1[nH]cnc1C(=O)Nc1ccc(OC)cc1` was -11.1; that for `CCc1cc(-c2[nH]ncc2-c2ccc3c(c2)OCCO3)c(O)cc1OC` was -13.2.
The value for `O=C1C2=C(Nc3ccccc3SC2c2ccc3c(c2)OCO3)c2ccccc21` (stereo unspecified) was -10; that for `COc1ccc(-c2nnc(Nc3cccc(O)c3)c3ccccc23)cc1` was -10.7.
As to `COc1ccc(-c2csc(Nc3ccc(Oc4ccccc4)cc3)n2)cc1Br`, the z-score is -13.5.
Molecule `N#Cc1nc(COc2ccc(Br)cc2)oc1N1CCCCCC1` yielded a z-score of -3.65.
On to `CCCCN(CCCC)S(=O)(=O)c1ccc(C(=O)Nc2nnc(COC)o2)cc1`, for which the z-score was -1.47.
As for `CCCCN(CCCC)S(=O)(=O)c1ccc(C(=O)Nc2nnc(C3CC3)o2)cc1`, the figure is -1.66.
As to `Cc1cccc(NCC(O)Cn2c(C)c(C)c3ccccc32)c1` (stereo unspecified), the z-score is -0.914.
The value for `COc1ccc(-c2noc(N(C)CC(=O)Nc3cc(C)on3)n2)cc1` was -34.3.
On to `CCc1ccccc1NC(=O)c1cccc2c1C(=O)N(c1ccc(OC)cc1)C2`, for which the z-score was -15.9.
As for `CCCCN(C)S(=O)(=O)c1ccc(C(=O)Nc2nnc(CC)o2)cc1`, the z-score is -17.2.
As for `Cc1ccccc1OCc1nc(C#N)c(N2CCN(c3ccccc3)CC2)o1`, the figure is -7.35.
On to `c1ccc(-c2nnc(-c3ccccn3)nc2-c2ccccc2)cc1`, for which the z-score is -1.65.
`Cc1cccc(C)c1Nc1c(-c2ccccn2)nc2ccccn12` showed a z-score of -19.3.
The value for `CNCC(=O)Nc1c2c(nc3c1CCC3)CCCC2` was -6.89; that for `O=C(Nc1nc(N2C(=O)c3ccccc3C2=O)n(-c2ccccc2)n1)c1ccc(F)cc1` was -9.76; that for `CCN(CC)c1ccc(Nc2nc(-c3c(C)nc4sccn34)cs2)cc1` was -17.8.
The value for `COc1ccc(OC)c(NC(=O)c2c(NCc3sccc3C)sc3c2CCCC3)c1` was -10; that for `O=C(CCN1C(=O)COc2ccccc21)NCc1ccccn1` was -12.2.
As for `CCOC(=O)N1CCC(NC(=O)c2cccc3c2C(=O)N(c2ccc(OC)cc2)C3)CC1`, the figure is -8.18.
Take `COc1ccccc1NC(CNS(=O)(=O)c1ccccc1)c1ccccc1` (stereo unspecified): the z-score was -7.68.
For the molecule `O=C(Nc1nnc(-c2ccccc2)o1)c1ccc(F)c(S(=O)(=O)N2CCOCC2)c1`, the z-score is -8.44.
`COc1ccccc1-n1cnc2cc(NCc3ccc(C(C)C)cc3)ccc21` came in with a z-score of -5.
For the molecule `CCN(CCCNC(=O)c1cc(-c2ccncc2)nc2ccccc12)c1ccccc1`, the z-score is -7.74.
As for `COc1ccccc1Nc1cc(C(F)(F)F)nc2c(OC)ccc(OC)c12`, the figure is -7.6; as for `CCc1nnc(NC(=O)c2ccc(S(=O)(=O)N(C)C)cc2)o1`, -1.66; as for `Cc1nc2sccn2c1-c1csc(Nc2cccc(O)c2)n1`, -0.82.
As for `CC(C)CC(=O)NC(c1cccs1)c1ccc2cccnc2c1O` (stereo unspecified), the figure is -3.16; as for `CCCCN(CC)S(=O)(=O)c1ccc(C(=O)Nc2nc(-c3ccccn3)cs2)cc1`, -17.
`CCCCN(C)S(=O)(=O)c1ccc(C(=O)Nc2nnc(COC)o2)cc1` came in with a z-score of -1.58.
As for `COc1cccc(CNc2ccc3c(c2)ncn3-c2ccccc2)c1OC`, the z-score is -4.65.
As for `c1ccc2c(-c3nc(C4CCCCC4)no3)cc(-c3ccncc3)nc2c1`, the z-score was -6.55.
As for `COc1ccc(Nc2c(-c3ccccn3)nc3ccc(C)cn23)cc1`, the figure is -27.7; as for `CCc1cc(-c2n[nH]c(C)c2Oc2ccccc2)c(O)cc1O`, -9.19; as for `CCOC(=O)c1cnc2c(C)cccc2c1Nc1ccc(N(C)C)cc1`, -20.7.
`Cc1cc(C)n(-c2nc3ccccc3nc2Nc2ccc(N(C)C)cc2)n1` registered a z-score of -9.41.
Regarding `CCN(CCCNC(=O)CN1C(=O)COc2ccc(C(C)(C)C)cc21)c1cccc(C)c1`, the z-score is -12.6.
The value for `CCOC(=O)c1cnc2ccc(OCC)cc2c1N1CCN(c2ccccc2F)CC1` was -0.936; that for `Cc1nnc(Nc2ccc(S(=O)(=O)Nc3nccs3)cc2)c2ccccc12` was -3.34; that for `COC(=O)c1c[nH]n2c(NC3CCCCC3)c(-c3ccc(OCCC(C)C)c(OC)c3)nc12` was -12.5.
`COc1ccc(CNc2ccc3c(c2)ncn3-c2ccc(C)cc2)cc1` showed a z-score of -3.41.
The value for `COc1cc(-c2nc(-c3ccc(C)c(C)c3)c(-c3ccc(C)c(C)c3)[nH]2)cc(OC)c1O` was -0.504; that for `CC1CCN(c2oc(COc3ccc(Cl)cc3)nc2C#N)CC1` was -4.02; that for `Cc1ccc(-c2nnc(Nc3cccc(O)c3)c3ccccc23)cc1S(=O)(=O)NC(C)(C)C` was -11.3.
In turn, `O=C(O)c1c[nH]c2ccc(S(=O)(=O)NCc3ccccn3)cc2c1=O` came in with a z-score of -13.1.
As for `C=CCN(CC=C)S(=O)(=O)c1ccc(C(=O)Nc2nnc(-c3ccc(Cl)s3)o2)cc1`, the figure is -7.15.
As for `CCOc1ccc2nc(N3CCCC(C(=O)N4CCN(c5cccc(C)c5)C(C)C4)C3)sc2c1` (stereo unspecified), the figure is -13.7.
For `Cc1[nH]c2ccc(-c3nnc(SCCO)n3-c3ccc(Br)cc3)cc2c1C`, the z-score is -7.64.
In turn, `CCCCn1cnc2cc(NCc3ccc(Br)cc3)ccc21` gave a z-score of -21.4.
As to `CCC(=C(c1ccc(OC)cc1)c1ccc(OC)cc1)c1cn(CC(O)CN2CCCC2)c2ccccc12` (stereo unspecified), the z-score is -4.64.
As for `Cc1cccc(OCCn2c(NC(=O)c3ccccc3Cl)nc3ccccc32)c1`, the figure is -7.08; as for `Cc1ccc(OCc2nc(C#N)c(N3CCN(c4ccccc4)CC3)o2)cc1`, -6.87.
As for `N#Cc1nc(COc2cccc(Cl)c2)oc1N1CCCCCC1`, the figure is -3.45; as for `COc1ccc(C(NC(=O)CCc2ccccc2)c2ccc3cccnc3c2O)cc1` (stereo unspecified), -3.23; as for `CC(=O)c1cccc(Nc2nc(-c3ccccn3)cs2)c1`, -12.3.
Regarding `Cc1ccc2c(c1)Oc1cc([N+](=O)[O-])cc(Oc3ccc(Cl)cc3)c1C(=O)N2`, the z-score was -14.5.
Molecule `COc1cccc2c(S(=O)(=O)Nc3ccc(C(=O)O)cc3)ccnc12` displayed a z-score of -12.8.
Regarding `Cc1ccc2c(c1)Oc1cc([N+](=O)[O-])cc(Oc3ccccc3C)c1C(=O)N2`, the z-score is -17.3.
`CC(C)CC(=O)NC(c1ccccc1)c1ccc2cccnc2c1O` (stereo unspecified) came in with a z-score of -3.36.
Take `O=C1Nc2ccccc2Oc2cc([N+](=O)[O-])cc(Oc3cccc(Cl)c3)c21`: the z-score was -11.4.
The value for `Cc1ccc(-c2nnc(Nc3ccc(S(=O)(=O)Nc4nccs4)cc3)c3ccccc23)cc1` was -0.867; that for `CN(C)CCCN1C(=O)CCn2c(-c3ccccc3)c(-c3ccccc3)c3cccc1c32` was -7.9.
As for `CCOc1ccc2nc(N3CCCC(C(=O)NCCCN4CCN(CC)CC4)C3)sc2c1` (stereo unspecified), the figure is -10.6.
